# This is one part of the list.
# Tested on: T1, Caupolican (Caup) homeodomain DNA-binding domain
# T1 sequence: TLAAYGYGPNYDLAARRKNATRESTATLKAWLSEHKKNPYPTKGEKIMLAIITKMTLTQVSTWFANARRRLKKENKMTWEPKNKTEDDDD
# Assay: PBM E-score (8-mer, recovered from the published 9-mer minima) (E-score (dimensionless, -0.5 to 0.5)); Drosophila protein; higher = stronger relative binding preference, active = 0.31 or more
# Summary of the method: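 Caup's homeodomain DNA-binding domain (residues 214-303) was made by in vitro transcription and translation and applied at 100 nM to custom-designed protein binding microarrays. Each value is an enrichment score that gives relative binding preference for a short DNA word, with higher meaning stronger. The 8-mer values were recovered from published 9-mer scores, each of which was the minimum of its two constituent 8-mer scores. A cutoff of 0.31 marks candidate sites.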
row,Sequence,PBM E-score
1,ATGTGCAA,inactive: 0.17
2,CACTAGCC,inactive: -0.14
3,ATATGAAG,inactive: 0.029
4,CGGCAATC,inactive: -0.0727
5,GAAAGACA,inactive: 0.163
6,CGCATGGC,inactive: -0.16
7,AGAGCAAC,inactive: 0.0211
8,AGTATTTG,inactive: 0.111
9,GATGACGC,inactive: -0.132
10,CCGGATCG,inactive: -0.121
11,ACGTAACT,inactive: 0.0508
12,ATTGCGGG,inactive: -0.0884
13,AACGTTAT,inactive: 0.167
14,GGTCGGGA,inactive: -0.15
15,CTCATTCC,inactive: -0.0174
16,ACATACCA,inactive: 0.248
17,CCGGGTTA,inactive: -0.1
18,AGAACTCG,inactive: -0.0449
19,CAGGTTTC,inactive: 0.0145
20,GCAGTTCA,inactive: -0.106
21,CGTTCTGA,inactive: 0.00408
22,AAGACCGA,≥ 0.0146
23,AGCGCTAT,inactive: 0.0173
24,ATTATCCG,inactive: -0.0156

row,Sequence,PBM E-score
1,AAGTCAAT,≥ 0.098
2,ATTCCTAC,inactive: 0.107
3,CTGTGAGA,inactive: -0.00857
4,AAGCGCTC,inactive: -0.0742
5,GTGTGCCA,inactive: -0.102
6,CCGGAGGC,inactive: -0.277
7,CTCTCACA,inactive: -0.0652
8,CGTTACTA,inactive: 0.144
9,AGTCACGA,inactive: 0.0855
10,CTCCATGA,inactive: 0.00385
11,AAGCGTAA,inactive: -0.0109
12,AGACATCC,inactive: 0.145
13,AGCCATAA,inactive: 0.0213
14,GAGACTTA,inactive: -0.0631
15,TACTGCGA,inactive: -0.0185
16,CACGGACA,inactive: 0.246
17,AGGCCCCT,inactive: -0.232
18,ATTCATTC,inactive: 0.128
19,CATTTTAC,inactive: 0.169
20,TCAAACGA,inactive: 0.0735
21,GACATATA,inactive: 0.305
22,AGCACGAA,inactive: 0.112
23,GCCTGCTA,inactive: -0.107
24,AGTGAGGC,inactive: -0.106

row,Sequence,PBM E-score
1,CCACCCAC,inactive: -0.105
2,ACCAAATC,inactive: 0.0282
3,AGATTACC,inactive: 0.113
4,CTTCGGCA,inactive: -0.215
5,AGGTTCTC,inactive: -0.111
6,GTAAGTAC,inactive: 0.177
7,CTTATGCA,inactive: 0.0215
8,TAATGGTA,inactive: 0.0647
9,CCTCCCAC,inactive: -0.108
10,GTCTAGAC,inactive: 0.0815
11,ATCTGGCC,inactive: -0.139
12,GTCTTGTA,active: 0.352
13,ATACCGCC,inactive: -0.143
14,TAATTGCA,inactive: 0.0768
15,ATTGTATG,inactive: 0.196
16,CAGCCGTC,inactive: -0.127
17,AATGCCTC,inactive: -0.0478
18,CGCTATTC,inactive: 0.105
19,GCAGCTTA,inactive: -0.075
20,CCCCAAGA,inactive: -0.0902
21,ACGAGTTA,inactive: 0.126
22,AAATTGTA,inactive: 0.221
23,TAGTAACA,active: ≥ 0.316
24,ATCTAAGG,inactive: -0.0527

row,Sequence,PBM E-score
1,ATCCGTGA,inactive: -0.0217
2,ACCTAACG,inactive: -0.142
3,GACCTCGA,inactive: -0.0288
4,ACTAGATC,inactive: 0.0865
5,ATGCGTGG,inactive: -0.0631
6,CCCGGCAG,inactive: -0.269
7,CAAGGATC,inactive: 0.0846
8,AGACCGTA,inactive: -0.0541
9,TCGCTTAA,inactive: 0.0301
10,AAAGTGTA,inactive: 0.166
11,TTGAACAA,inactive: 0.226
12,CGCCCTAG,inactive: -0.274
13,AACTGTCC,inactive: 0.00083
14,CACGTGGA,inactive: 0.1
15,CTCACTTA,inactive: 0.00895
16,ATGACGCG,inactive: 0.0946
17,ACGAAAGA,inactive: -0.00046
18,AGGCCCGA,inactive: -0.17
19,ATTTATCA,inactive: 0.133
20,CATGTTTC,active: 0.355
21,CTCGTAAA,inactive: 0.0886
22,TGATTGAA,inactive: 0.139
23,GGAACGCA,inactive: -0.2
24,ATAACGAG,inactive: 0.132

row,Sequence,PBM E-score
1,GGACTCAA,inactive: -0.0238
2,GTAACAGA,inactive: 0.211
3,CGTTACAA,inactive: 0.289
4,CACTTAGA,inactive: 0.0817
5,AGTTAGCG,inactive: 0.029
6,CCCGCGAC,inactive: -0.197
7,ACTAGCTG,inactive: 0.0585
8,AACCCAAA,inactive: -0.0328
9,CAGTGACA,inactive: 0.207
10,ATATAAAT,≥ 0.192
11,GAGCGGCA,inactive: -0.199
12,CAAGCCCC,inactive: -0.174
13,TATGAGCA,inactive: -0.01
14,TGTTGCAA,inactive: 0.276
15,ATAGAGAG,inactive: -0.00882
16,ACTTTTCC,inactive: 0.0593
17,AGTGTTCC,inactive: 0.05
18,GGGGACCA,inactive: -0.156
19,CCATGCAC,inactive: -0.0759
20,CACCGAGC,inactive: -0.0438
21,GGTATACC,inactive: 0.116
22,AGCATGTA,active: ≥ 0.413
23,GCTGAGAA,inactive: -0.167
24,CGTTATTC,inactive: 0.0883

row,Sequence,PBM E-score
1,GAATTCGA,inactive: -0.00134
2,CTTATGAC,inactive: 0.0924
3,AATCCTGT,inactive: 0.213
4,AAGTCCTC,inactive: -0.0833
5,CGATTATA,inactive: 0.144
6,AGCGGTGG,inactive: -0.264
7,CAAGCTCA,inactive: -0.0103
8,AGACGTGG,inactive: -0.0599
9,ACTTTAAA,inactive: 0.107
10,AGTGCTCA,inactive: -0.0761
11,CTCTCTTA,inactive: -0.0249
12,CGAAGTTA,inactive: 0.0673
13,AAAGCGGC,inactive: -0.198
14,CCCCCGAC,inactive: -0.222
15,CCTCACCG,inactive: -0.187
16,GTGTTCAA,inactive: 0.266
17,GAGCCAGC,inactive: -0.154
18,ACCGAGGT,inactive: -0.0941
19,CGAATAAC,inactive: 0.197
20,ACACGTGA,inactive: 0.31
21,AAACGAGG,inactive: -0.0546
22,ACCGCTAG,inactive: -0.0641

# Source: the supplement of paper PMC3724861
